Source: PubChem BioAssay AID504845 (National Center for Advancing Translational Sciences (NCATS), 2011)
Values joined by “and” are separate entries in the source; they are usually repeats but may differ in a detail not shown here. Equal entries are not always repeated. Hit rate of the full screen: of about 390,000 compounds, about 150 (0.038%) were called active. Not shown: some 3% with an inconclusive outcome. The call rests on the fitted dose curve; in most records, active means well fitted inhibition curve with a large enough effect; inconclusive means small, poorly fitted or top-dose-only effect; inactive means no such curve, though single readings can be large or run the other way. The entries are a selection whose mix differs from that of the whole data set. More than one record can exist for a structure, and the calls need not agree.

What follows are molecules tested against Regulator of G-protein signaling 4 (Homo sapiens) (UniProt P49798) (assay: Inhibitors of Regulator of G Protein Signaling (RGS) 4: qHTS). Settings: Transcreener GDP fluorescence polarization, RGS4-accelerated GTP hydrolysis; series mostly up to 114 µM; activity change, negative = inhibition: at the top concentration.
Chain of UniProt P49798 (P49798 whole entry, looked up): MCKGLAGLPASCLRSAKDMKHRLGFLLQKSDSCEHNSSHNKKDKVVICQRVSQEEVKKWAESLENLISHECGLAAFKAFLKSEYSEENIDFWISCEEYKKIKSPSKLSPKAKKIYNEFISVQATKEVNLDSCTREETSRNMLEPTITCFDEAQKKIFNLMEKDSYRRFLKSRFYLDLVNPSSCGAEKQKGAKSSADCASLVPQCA
Outline: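 MLSMR compounds (23 nl, pin-transferred) preincubated 10 min at room temperature with a 500nM (2x) first reagent, then RGS4 at 900nM (2x) plus Transcreener GDP mix added; fluorescence polarization (620/688 nm) read before and after 90 min at 30 °C.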
Further: nearly all actives have a fitted effect of over 75% in size.
On the % scale 0 is the no-effect control and ±100 the full control effect; potency means the concentration at half of the fitted maximal effect.

Structure (SMILES) | activity change, negative = inhibition | Potency
COCCCNc1nc2cc(OC)c(OC)cc2c2nc(-c3ccccc3)nn12 | inactive: -6.11% | –
Nc1ccccc1C(=O)C[C@H](N)C(=O)O | inactive: 11.9% | –
COc1ccc(CCn2nnnc2C2(c3ccc(C)cc3)CC2)cc1 | inactive: 9.14% [at 56.9 µM] | –
CCOC(=O)C(C)Oc1cccc2c(=O)n(CC(=O)Nc3ccc4c(c3)OCCO4)ccc12 (stereo unspecified) | inactive: -35.2% | –
OCC[C@@H]1C[C@@H](O)[C@H](O)[C@@]2(OCCc3ccccc32)O1 | inactive: -35.3% | –
CCN1CCN(C(=O)Cn2ncc3c([nH]c4ccc(C)cc43)c2=O)CC1 | inactive: 65.1% | –
CCCN(CC1CC1)c1nc(C)nc(Nc2c(Cl)cc(Cl)cc2Cl)c1Cl | – | inactive
CCCCCC(O)CCCC(=O)O (stereo unspecified) | – | inactive
CCOC(=O)Cc1c(C)nc(-c2ccccc2)[nH]c1=O | inactive: 54.4% | –
O=C(CCn1c(=S)[nH]c2ccccc2c1=O)NCCCN1CCOCC1 | inactive: 55.9% | –
C[C@H](Cc1ccc(O)c(O)c1)[C@@H](C)Cc1ccc(O)c(O)c1 | – | active: 15 µM
COc1cccc2c1C(=O)c1c(O)c3c(c(O)c1C2=O)C[C@](O)(C(C)=O)C[C@H]3O[C@@H]1C[C@@H](N)[C@@H](O)[C@@H](C)O1 | inactive: -28.4% | –
NC(N)=NC(N)=Nc1ccccc1 | – | inactive
COc1cc(/C=C2/SC(=O)NC2=O)ccc1Oc1ccc([N+](=O)[O-])cc1[N+](=O)[O-] | inactive: 32.5% [at 11.4 µM] | –
C[C@@H]1CC=C[C@H]2[C@H]1C(=O)N(Cc1ccccc1)[C@H]2c1ccc(-c2ccoc2)cc1F | inactive: -47.6% | –
CN([C@@H](Cc1ccc(OS(=O)(=O)c2cccc3cnccc23)cc1)C(=O)N1CCN(c2ccccc2)CC1)S(=O)(=O)c1cccc2cnccc12 | inactive: 12.5% | –
CC1(C)Oc2ccc(C(=O)NC3CCCC3)cc2N(CC(=O)NC2CCCCC2)C1=O | inactive: 57.1% | –
CCc1ccc(/C=C2/SC(=S)N(CCCC(=O)Nc3ccccc3C(=O)O)C2=O)cc1 | inactive: 1.79% | –
Cc1ccc(S(=O)(=O)N2c3ccccc3NC(=O)C2CC(=O)Nc2ccccc2)cc1 (stereo unspecified) | inactive: 67.4% | –
Cc1onc(-c2ccccc2)c1C(=O)Nc1ccncc1 | inactive: 54.1% | –
CCCCc1c(O)nc(SCC(=O)NCCc2ccc(OC)c(OC)c2)[nH]c1=O | inactive: 56.3% | –
COc1ccc(Cl)cc1C(=O)NCCc1ccc(S(=O)(=O)NC(=O)NC2CCCCC2)cc1 | – | inactive
CC#C[C@]1(O)CC[C@H]2[C@@H]3CCC4=CC(=O)CCC4=C3[C@@H](c3ccc(N(C)C)cc3)C[C@@]21C | inactive: -13.1% | –
COc1cc(NC(=O)C2CC2C)c(C(=O)O)cc1OC (stereo unspecified) | inactive: 58.5% | –
CCN(CC)CCOCCOC(=O)C1(c2ccccc2)CCCC1 | inactive: -3.13% | –
N[C@H]1CONC1=O | – | inactive

Structure (SMILES) | activity change, negative = inhibition | Potency
Cc1cc(F)c(F)c(C(=O)N2CCN(C)CC2)c1Cl | inactive: 56% | –
COc1ccc(NC(=O)CCC(=O)c2ccc(C(C)C)cc2)cc1 | inactive: 71% | –
CC(=O)Nc1ccccc1OC(C)C(=O)N1CCC(C)CC1 (stereo unspecified) | inactive: 55.4% | –
N#CC1=C(N)C(C#N)(C#N)C(c2ccncc2)C2CN(C(=O)OCc3ccccc3)CC=C12 (stereo unspecified) | inactive: -53.6% | –
CN[C@H]1CC[C@@H](c2ccc(Cl)c(Cl)c2)c2ccccc21 | – | inactive
N=C(N)SCc1nc2ccccc2c(=O)n1-c1ccccc1 | inactive: -36.1% | –
O=C(O)CCC(=O)NCCn1c(-c2ccccc2)csc1=Nc1ccccc1 | inactive: -9.42% | –
CC1CCC2[C@](C)(CO)C(O)CC[C@]2(C)C12CCC(CO)(CCO)O2 (stereo partly specified) | inactive: -51.2% [at 56.9 µM] | –
CC(=O)Nc1nc(C)c(-c2csc(Nc3ccccn3)n2)s1 | inactive: -38.2% | –
Cc1ccc2c(=O)cc(C(=O)Nc3ccc(S(=O)(=O)Nc4onc(C)c4C)cc3)oc2c1 | inactive: -9.5% | –
O=C(CSc1nnc(Cc2ccccc2)o1)NC1CCCCC1 | inactive: 54.2% | –
C[C@](Cc1ccc(O)c(O)c1)(NN)C(=O)O | inactive: -6.49% [at 56.9 µM] | –
Clc1ccc2nsnc2c1NC1=NCCN1 | – | inactive
Cc1nnc(NC(=O)CSc2nnc(C)n2Cc2ccccc2)s1 | inactive: 60.1% | –
O=C(Oc1ccccc1N1C(=O)C2CCCCC2C1=O)c1ccccc1 (stereo unspecified) | inactive: 60.8% | –
CCOC(=O)c1c(NC(=O)c2cc(CC(C)C)on2)sc(C(C)=O)c1C | inactive: -37% | –
Cc1cccc(/C=C2\Sc3ccc(C(=O)NCC4CCCO4)cc3N(C)C2=O)c1 (stereo unspecified) | inactive: 58.2% | –
CCCCOc1ccc(C2=NNC(=O)CC2)cc1 | inactive: 64.3% | –
CCOCCCn1c(=NC(=O)c2cccnc2)c(C(=O)OCC)cc2c(=O)n3ccccc3nc21 | inactive: -0.42% | –
NC1CCN(O)C1=O (stereo unspecified) | inactive: -8.34% [at 56.9 µM] | –
CCC1(c2ccccc2)C(=O)NCNC1=O | – | inactive
CC(C)c1ccc(C2(C)NC(=O)N(CC(=O)NC3(C#N)CCCC3)C2=O)cc1 (stereo unspecified) | inactive: 68.4% | –
COc1cc(/C=C2\SC(=S)N(CC(=O)Nc3cccnc3)C2=O)cc(OC)c1OC | inactive: -9.25% | –
CN1CC(O)C(O)C(O)C1CO (stereo unspecified) | inactive: -1.06% [at 56.9 µM] | –
NC[C@@H]1O[C@H](C23CC4CC(CC(C4)C2)C3)Cc2c1ccc(O)c2O | – | inactive
Cc1c(NS(=O)(=O)c2cccc(C(=O)O)c2)c(=O)n(-c2ccccc2)n1C | inactive: -9.7% | –

Structure (SMILES) | activity change, negative = inhibition | Potency
C[C@@](Cc1ccc(O)c(O)c1)(NN)C(=O)O | inactive: 42.4% | –
CC1CCN(CC[C@H]2CCCN2S(=O)(=O)c2cccc(O)c2)CC1 | – | inactive
Nc1ncnc2c1ncn2[C@@H]1O[C@H](CO)[C@@H](O)[C@@H]1O | inactive: -1.3% | –
COc1cccc2c1C(=O)c1c(O)c3c(c(O)c1C2=O)C[C@@](O)(C(=O)CO)C[C@@H]3OC1CC(N)C(O)C(C)O1 (stereo partly specified) | inactive: 0.84% | –
CN1CCN(CC(=O)N2c3ccccc3C(=O)Nc3cccnc32)CC1 | inactive: -15.5% [at 56.9 µM] | –
CCCCn1c(NCCN(C)C)nc2c1c(=O)[nH]c(=O)n2C | inactive: 55% | –
COC(=O)C1CCN(CCCOc2ccc(CN3CCN(c4ccc([N+](=O)[O-])cc4)CC3)cc2)CC1 | inactive: 70.5% | –
C[C@@]1(C2CCCC2)Cc2cc(OCC(=O)O)c(Cl)c(Cl)c2C1=O | inactive: 3.44% [at 56.9 µM] | –
CC1=NS(=O)(=O)c2cc(Cl)ccc2N1 | inactive: -6% | –
CC(C)NCC(O)COc1ccc(CC(N)=O)cc1 (stereo unspecified) | – | inactive
COc1ccccc1/C=C\C=N\n1c(-c2ccc(Cl)cc2Cl)n[nH]c1=S | inactive: -41.5% | –
CNCCc1cnc(CCC(c2ccccc2)c2ccccc2)[nH]1 | inactive: 5.43% [at 56.9 µM] | –
CC[C@](N)(CCC(=O)O)C(=O)O | inactive: 30% [at 56.9 µM] | –
Cc1cccc(CS(=O)(=O)c2ncc(Cl)c(C(=O)Nc3nnc(C(C)C)s3)n2)c1 | inactive: -34.4% | –
NCCCCCC(=O)O | inactive: -1.66% | –
CCn1cc(C(=O)N2CCCC2)c(=O)c2cc(S(=O)(=O)N3CC(C)CC(C)C3)ccc21 (stereo unspecified) | inactive: 55.4% | –
Clc1cccc(Cl)c1NC1=NCCN1 | inactive: 35.5% [at 56.9 µM] | –
CN(C)S(=O)(=O)c1ccc2c(c1)/C(=C/c1cc3c([nH]1)CCCC3)C(=O)N2 | inactive: -35.4% | –
O=C1NC(=O)c2cc(Nc3ccccc3)c(Nc3ccccc3)cc21 | – | active: 18.9 µM
Cc1nn(C)c(Oc2ccc(Cl)cc2)c1C(=O)O | inactive: 55.6% | –
C[C@H]1c2cccc(O)c2C(O)=C2C(=O)[C@]3(O)C(O)=C(C(N)=O)C(=O)[C@@H](N(C)C)C3[C@@H](O)C21 (stereo partly specified) | inactive: -13.5% | –
CC(=O)Nc1ccc(NC(=O)c2c(-c3ccccc3)noc2C)cn1 | inactive: 65.1% | –
C[C@H](C(=O)O)c1cccc(C(=O)c2ccccc2)c1 | inactive: 2.17% | –
O=C(Cn1c[n+](CC(=O)c2ccc([N+](=O)[O-])cc2)cn1)c1ccc([N+](=O)[O-])cc1 | inactive: 13.1% [at 11.4 µM] | –
NCCS | inactive: -2.18% | –
COCCOC(=O)C1=C(C)NC(C)=C(C(=O)OC(C)C)C1c1cccc([N+](=O)[O-])c1 (stereo unspecified) | – | inactive

Structure (SMILES) | activity change, negative = inhibition | Potency
C[C@@H]1C[C@H]2[C@@H]3CCC4=CC(=O)C=C[C@]4(C)[C@@]3(F)C(O)C[C@]2(C)[C@@]1(O)C(=O)CO (stereo partly specified) | inactive: 9.46% | –
C=CCN1CCc2c(cc(O)c(O)c2Cl)C(c2ccccc2)C1 (stereo unspecified) | inactive: -14.2% | –
O=c1[nH]c(/C=C/c2cccnc2)c([N+](=O)[O-])c(=O)[nH]1 | inactive: -48.4% | –
O=C(CCCN1CCC(O)(c2ccc(Cl)cc2)CC1)c1ccc(F)cc1 | – | inactive
CCc1c(C)sc(NC(=O)c2cc(-c3ccc(OC)c(OC)c3)on2)c1C#N | inactive: 9.24% | –
CSc1nc(N)c2ncn([C@H]3O[C@H](COP(=O)(O)OP(=O)(O)OP(=O)(O)O)[C@@H](O)[C@@H]3O)c2n1 | inactive: 329% [at 56.9 µM] | –
COC(=O)c1cc2occc2n1Cc1nc(-c2ccc(Cl)cc2)oc1C | inactive: 6.16% | –
CCOC(=O)C1=C(C)NC(SCC(=O)OC)=C(C#N)C1c1ccc(C(=O)OC)cc1 (stereo unspecified) | inactive: -31.9% | –
Cc1cc(NS(=O)(=O)c2ccc(-c3ccccc3)cc2)no1 | inactive: 55.9% | –
CC(C[N+](C)(C)C)OC(N)=O (stereo unspecified) | – | inactive
COc1ccc([C@@H]2Sc3ccccc3N(CCN(C)C)C(=O)[C@@H]2OC(C)=O)cc1 | – | inactive
COc1cc(N)c(Cl)cc1C(=O)CCC1CCN(CCNS(C)(=O)=O)CC1 | – | inactive and active: 37.7 µM
CCN1CCN(C(=O)c2ccc3c(c2)N(Cc2ccccc2F)C(=O)c2ccccc2S3(=O)=O)CC1 | inactive: -1.5% | –
CCCCC/C=C\CC1OC1CCCCCCCC(=O)O (stereo unspecified) | – | active: 37.7 µM
COc1cc(/C=C(\C#N)C(=O)c2ccc(O)c(O)c2)cc(I)c1O | inactive: -20.6% | –
OCC[C@H]1C[C@@H](O)[C@H](O)[C@]2(CCc3ccccc3CO2)O1 | inactive: -15.3% | –
C[C@@H](N)C(=O)O | – | inactive and active: 21.2 µM
O=C1Nc2ccc(I)cc2/C1=C/c1cc(Br)c(O)c(Br)c1 | – | active: 9.47 µM
O=C(Nc1ccccc1C(=O)N1CCN(c2cccc(Cl)c2)CC1)C1=CSCCO1 | inactive: 64.4% | –
CC(C)n1ncc(N2CCOCC2)c(Cl)c1=O | inactive: 55.6% | –
Clc1ccccc1CN1CCN(/N=C/C=C\c2ccco2)CC1 | inactive: -42.2% | –
CCC1(O)CC2CN(CCc3c([nH]c4ccccc34)[C@@](C(=O)OC)(c3cc4c(cc3OC)N(C=O)C3[C@]45CCN4CC=C[C@@](CC)([C@@H](OC(C)=O)[C@]3(O)C(=O)OC)[C@H]45)C2)C1 (stereo partly specified) | inactive: 42.8% [at 56.9 µM] | –
CC[N+]1(C)[C@@H]2CC[C@H]1CC(OC(=O)[C@H]1CCC(C(=O)OC3C[C@H]4CC[C@@H](C3)[N+]4(C)CC)(c3ccccc3)c3ccccc31)C2 (stereo partly specified) | inactive: -4.7% | –
